From the supplement of paper PMC10126150
Values marked as one replicate rest on one cluster of the flow cell; about a third of the high ones do not repeat.

System: ATP
Assay: switch fluorescence ratio, 500 uM ATP over buffer (Cy3 cluster intensity, sum of 5 cycles each) (fold (ratio)); higher = stronger signal-on switching upon ATP binding; sequences stand for … in TCGTCGGCAGCGTCAGATGTGTATAAGAGACAGTTTTTTTTTTTTTTTTTTTTTTTTT…TC
Conditions: aptamer strand: ATP DNA aptamer (quencher-CACCTGGGGGAGTATTGCGGAGGAAGG + anchor), 100 nM annealed; ATP concentration: 500 uM; one replicate
How it was run: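 Values give the fluorescence ratio for each switch-domain sequence, averaged from per-cluster ratios of summed target-cycle to summed buffer-cycle Cy3 intensity. The Cy3-labelled switching-strand clusters sat on a modified Illumina MiSeq flow-cell, were annealed to 100 nM quencher-labelled ATP aptamer, and were imaged in selection buffer, then after 15 min with 500 uM ATP at 22 °C. Five cycles ran with NaOH stripping and re-annealing between them, and clusters outside 100-1000 RFU were excluded.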
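Further: ATP exposure 15 min at 22 °C before imaging.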

| Sequence | switch fluorescence ratio |
| --- | --- |
| TACTCCCGCA | 2.63 |
| TTCCCATCTT | 0.996 |
| TCTGTGTCAG | 0.947 |
| CATGAATGAC | 0.989 |
| CTGTTGTGGC | 0.949 |
| GGATTATACG | 1.04 |
| CATTGACAAG | 1.02 |
| ATATGCTCGG | 1.01 |
| TCGTACATGG | 1.01 |
| CCGCGGTGGG | 1.07 |
| GGCGTTGTGT | 0.995 |
| ACACGGTTAT | 1.05 |
| TACTTCTAT | 1.02 |
| GAAAGTAGCG | 1.03 |
| ATATGGAAAA | 1.02 |
| AGTTGCTGG | 1.03 |
| TCTGGAAGTT | 1.02 |
| GATGCTAACT | 1.01 |
| AGCGATGTCC | 1.22 |
| TTTTCGACTG | 0.948 |
| TATTATGATA | 1.02 |
| AGGATATATA | 1.02 |
| AATTGCTCCA | 1.03 |
| GGGTGCCGCC | 0.943 |
| GCCGATGTAC | 1.53 |
| TGGGACTC | 0.989 |

| Sequence | switch fluorescence ratio |
| --- | --- |
| ATTAGCTTCT | 1.02 |
| CCAAACTGGT | 1.03 |
| GGCGTTTGTT | 0.966 |
| TTTCGATC | 0.98 |
| TATCACCCCA | 1.05 |
| GTCAGACCAT | 0.985 |
| CCCCTTGAGC | 1.03 |
| AATATAGGGA | 0.946 |
| CTGGATGGGG | 1.08 |
| AATTTTGGT | 0.997 |
| ACTGGAATTG | 1.06 |
| TCGGGCGCG | 0.994 |
| TTACAGAAGA | 1.03 |
| TGGTGCTTGA | 1.04 |
| CGCCTACAGT | 1.03 |
| GGTTTTGACG | 1.12 |
| TTGGATGGAC | 1.05 |
| TGCTGGGG | 0.982 |
| ACGCAATGGC | 2.51 |
| TGCTGAACTT | 0.996 |
| CATAGGAGAA | 0.94 |
| CCTTATTCGT | 0.986 |
| ACCGCTTGTG | 1.06 |
| GGACATTAAT | 1.03 |
| TTGACGGGAT | 1.08 |
| ATCCGGCTTC | 0.972 |

| Sequence | switch fluorescence ratio |
| --- | --- |
| CCTTAATCCT | 1.14 |
| TACTCTAGT | 1.06 |
| ATTAATGCC | 1.01 |
| ATGTACAAAA | 1.11 |
| GTTATAGCAG | 0.966 |
| TGCCCTGGGT | 1.02 |
| CTATGTTTGA | 1.02 |
| CCCCATTAAC | 1.35 |
| AACCGGGTTA | 0.977 |
| AGAAAGCTGG | 1.02 |
| TTCCGCCCTT | 4.96 |
| ATGAGATCCT | 1.05 |
| CCTTGGGTCA | 0.996 |
| GGGAAAACTG | 0.979 |
| TAGTGCCCGA | 1 |
| GGAAATCATG | 0.983 |
| CGTACGGCGT | 0.953 |
| GTACGAATC | 1.04 |
| GAGCGGGCAA | 1.1 |
| CATAGGGAAG | 0.948 |
| GTTTGAGACA | 1 |
| CCTCAGACTT | 1.29 |
| AATGGGCGC | 0.964 |
| CTTAGCTTT | 3.78 |
| CCCCCAGCCG | 1.1 |
| GCTGGCGACG | 1.05 |

| Sequence | switch fluorescence ratio |
| --- | --- |
| ATATGACGAG | 1.03 |
| GAGTCTATAG | 1.02 |
| GACATTGCTC | 1.07 |
| ACGGAGGGGA | 1.01 |
| CCACGGGGGT | 1.08 |
| CGTGGGGGA | 1.05 |
| GATTTATGGC | 1.01 |
| TCAAGGGTGG | 1.03 |
| ACGTATCCAA | 1.19 |
| TGCCGAACTT | 1.02 |
| GAATTTAATT | 0.994 |
| GGCTAAACTT | 1.04 |
| GAAGCTATAA | 3.68 |
| ATGTCTAGGG | 0.951 |
| CGAGTTGCTA | 1.02 |
| CCCCAGATA | 1.1 |
| CTACTAGGGG | 1.07 |
| GACTCCTATG | 1.01 |
| GCCATGCTTC | 0.995 |
| GAAACCACGT | 1.1 |
| CACAAAGGAA | 0.999 |
| CAGATGGCGT | 1.01 |
| GGAGCGAGGT | 1.02 |
| ATTCGGTCAG | 0.964 |
| CATGTCGTAG | 0.978 |
| GCTGGGCCTA | 0.998 |

| Sequence | switch fluorescence ratio |
| --- | --- |
| AAACTGTGTA | 0.993 |
| GTTTGATTCG | 1.02 |
| GACGGAGGTT | 0.966 |
| AGTAATCGTG | 0.967 |
| TAAGTAGATA | 1.01 |
| AGCGAAGCGC | 1.02 |
| ACCTGGGAG | 0.98 |
| GCCGCATTTC | 2.33 |
| GAAAAAGACC | 1.07 |
| GGTTAAAGGC | 1.03 |
| GACAGTATGT | 1 |
| AGGGAGAGCT | 1.05 |
| TGCTCGGGGC | 0.972 |
| ATTCATGTG | 1.01 |
| GGCATTGTTG | 1.01 |
| TGCGCCTTCC | 2.38 |
| ACGTGTCAAG | 1.01 |
| TATACCCGGT | 0.971 |
| AACTCGCCAA | 1.09 |
| ATGTTCTTAT | 0.967 |
| TAGCTTAATA | 1.01 |
| TTCTGAGGG | 0.921 |
| AATTCGATC | 0.998 |
| CTTTAGGGGA | 1.01 |
| TAACGACGTG | 1.01 |
| AACTGCCTCA | 1.06 |

| Sequence | switch fluorescence ratio |
| --- | --- |
| CGTGACAGTC | 1.04 |
| GGACACCTTA | 0.996 |
| GTAGTCGGGG | 1.07 |
| GACACGAAGG | 1.01 |
| CCGAAGGTCT | 1.08 |
| TTATCATTCC | 1.38 |
| ACGGTACCAG | 1.37 |
| GGGGTATAAC | 0.988 |
| GCACTTGGAT | 0.992 |
| GTTTCCTGAA | 0.985 |
| ATAAGGTCAG | 1 |
| GGGACGATCA | 1.05 |
| TCATAGGAGG | 0.963 |
| TTGTGGGATG | 0.975 |
| GGGGCCGACG | 0.984 |
| TCGAAAGCGA | 1.66 |
| AGTTCCCTTA | 0.993 |
| TTAATATCGC | 0.995 |
| TTTTTTAT | 1.03 |
| AGTTAGCTTT | 0.985 |
| CTTTAATAAT | 1.03 |
| CGCGGTCCGT | 1.02 |
| CGTCGCCTGT | 1.02 |
| GATTCGTTCT | 1.01 |
| TCCCATGAAG | 1.01 |
| TGAATCTCGT | 1.05 |

| Sequence | switch fluorescence ratio |
| --- | --- |
| GACCTGTTCT | 0.995 |
| AGACCTGAGG | 1.02 |
| AAATCGGCGC | 0.993 |
| GAACTCGACC | 1.07 |
| AGTGAAAGGG | 1 |
| TGGGCCACAA | 1.03 |
| GTTAGAGAAA | 0.986 |
| CATTGCGCGG | 0.97 |
| TGGTCGCCCT | 1.01 |
| CCCTATTCAT | 1.02 |
| GACCTGAGGC | 1.05 |
| TTAATACTCG | 2.44 |
| CATTCATGTC | 0.958 |
| GGATAGTAAA | 1.01 |
| AAGTTACGGT | 1.14 |
| CTTACAGTCA | 1.01 |
| CTAAGTTGTT | 0.954 |
| TTCCATAACG | 0.968 |
| AGTATGGGTC | 1.02 |
| GTTGTTAAAA | 0.977 |
| TAATCTCTGC | 1.02 |
| GATGATTACC | 1.04 |
| TTAGGCGTTG | 0.978 |
| CCATTGAGTT | 0.992 |
| GTGTTGGAAG | 0.963 |
| CAAACATTTA | 0.981 |

| Sequence | switch fluorescence ratio |
| --- | --- |
| TATCTCCTCC | 1.54 |
| AAAAGGGTAA | 0.983 |
| GCCAGTTG | 1.04 |
| GCGTTAAATT | 1.01 |
| CTGCAGCTGG | 1.58 |
| TTTCTAACCT | 0.964 |
| AAGCTTGCTT | 0.996 |
| GGGAGGTTGA | 1.01 |
| GAAAATTGTT | 0.993 |
| ATGAGAATTG | 0.993 |
| TTGCCAGCGT | 0.963 |
| TGAGGGTCAG | 1.02 |
| GCCGTGAAGG | 1.01 |
| TCGATGGGGT | 1 |
| GGTGTGACCT | 1.04 |
| CAATTGGGT | 1.01 |
| GTAGTTCGAA | 0.997 |
| ATTGCGGAAA | 1 |
| CCACTTGGCT | 0.99 |
